Hit rate of the full screen: of about 43,000 compounds, about 830 (1.9%) were called active. The shares of active, inactive and inconclusive entries below differ from those in the screen. The calls were made as follows: active = clear falling dose curves in both reporters; inconclusive = both reporters move, but less clearly or upward; inactive = either reporter flat; the % is the NLuc reporter signal. No potency is given beside an inconclusive call; the fits are too rough.
Experiment: Cell-based coincidence reporter assay to measure PMP22 gene transcription in S16 Pmp22-F2sN cells - Primary screen
Details: S16 Pmp22-F2sN Schwann cells (luciferase reporters placed in the Pmp22 gene), FLuc/NLuc coincidence luminescence, 24 h; measured here: NLuc reporter readout, at 57.5 µM (top of the series); activity change, negative = inhibition: at the top concentration
Procedure, shortened: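 S16 Schwann cells carrying FLuc/NLuc coincidence reporter in the Pmp22 3' UTR treated with compound 24 h at 37C; FLuc then NLuc luminescence read sequentially by dual-luciferase reagents.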
% is scaled to controls: 0 for no effect and ±100 for the full control effect; potency is read from the fitted curve at half-maximal effect; tags tell the direction and shape of the fitted curve.

Row | Structure (SMILES) | Potency | activity change, negative = inhibition
1 | CC(=O)OCC#CCSc1nnc(-c2cccc(Br)c2)o1 | active: 9.15 µM | –
2 | COc1ccc(CSc2nc3ncccc3[nH]2)cc1 | – | inactive: 17.6%
3 | CCS(=O)(=O)N1CCc2cc(C(=O)N3CCN(c4cccc(C(F)(F)F)c4)CC3)ccc21 | inconclusive [phenotype inactive, single point] | –
4 | CCOc1ccc(-n2c(Cc3ccccc3)nnc2SCc2nc(-c3ccccc3C)no2)cc1 | inconclusive [phenotype inactive, single point] | –
5 | Cn1c(=O)c2c(nc(SCC(=O)Nc3ccc(OC(F)(F)F)cc3)n2Cc2cccc(C(F)(F)F)c2)n(C)c1=O | inconclusive [phenotype inactive, partial curve, poor fit] | –
6 | COc1ccccc1NC(=O)N1CC(=O)Nc2sc3c(c2C1c1ccccc1)CCCC3 (stereo unspecified) | inconclusive [phenotype inactive, single point] | –
7 | CCCS(=O)(=O)c1ncc(Cl)c(C(=O)N(Cc2ccccc2)Cc2ccco2)n1 | active: 6.45 µM | –
8 | CCOc1ccc(CCNC(=O)CCCc2nnc3n(CC(C)C)c(=O)c4sccc4n23)cc1 | – | inactive: -10.8%
9 | COc1cccc(-c2nc(SCC(=O)Nc3ccc4c(c3)OCO4)c(-c3ccccc3)[nH]2)c1 | inconclusive [phenotype inactive, single point] | –
10 | COc1ccccc1NC(=O)c1sc2nc(C)c(C(=O)Nc3ccc(Cl)cc3)c(-c3ccc(Br)cc3)c2c1N | inconclusive [phenotype inactive, partial curve] | –
11 | COc1ccccc1CNC(=O)c1cc(S(=O)(=O)N2CCCCCC2)cn1C | inconclusive [phenotype inactive, single point] | –
12 | CCOc1ccccc1CNC(=O)C1CCN(c2nnc(C)c3c(C)n(-c4ccc(C)cc4)nc23)CC1 | inconclusive [phenotype inactive, partial curve, poor fit] | –
13 | O=S(=O)(NCC(c1ccco1)S(=O)(=O)c1ccccc1)c1cc(F)ccc1F (stereo unspecified) | inconclusive [phenotype inactive, partial curve] | –
14 | COc1ccc(NC(=O)Nc2nnc(SCC(=O)Nc3cccc(C)c3C)s2)cc1 | – | inactive: -19.4%
15 | O=C(NCc1ccccc1)c1cccc(Nc2nc3ccccc3n3nnnc23)c1 | active: 12.7 µM | –
16 | COc1ccc(OC)c(NC(=O)c2cc(-c3ccc(Cl)s3)nc3ccccc23)c1 | inconclusive [phenotype inactive, partial curve, poor fit] | –
